These results are taken from ChEMBL document CHEMBL1157539, “Thousands of chemical starting points for antimalarial lead identification” (Nature, 2010).

Values joined by “and” are separate entries in the source; they are usually repeats but may differ in a detail not shown here. Identical values can stand only once. In all, about 13,000 compounds were measured (“IFI”: median about 4, highest 2% from about 17 on). The list shows a part of the results.

This experiment is described as follows: GSK_TCMDC: Inhibition Frequency Index (IFI). The number of non-kinase HTS assays where a compound showed > 50 % inhibition, expressed as a percentage of the number of such assays in which the compound was tested (-0 is zero). It is filed as functional.
`Cc1cccc(CN2CCC(CNC(=O)c3cc4c(-c5ccccc5F)nn(C)c4s3)CC2)c1` showed an IFI of 6.52%.
The value for `CCN(CC)CCOc1ccc(C(O)(C#CC(O)(c2ccccc2)c2ccc(OCCN(CC)CC)cc2)c2ccccc2)cc1` (configuration not stated) was 6.52%; that for `Cc1ccc(Nc2nc(N)c3ccccc3n2)cc1` was 4.93%; that for `CNC(=O)c1nc(-c2ccccc2)[nH]c1NC(C)=O` was 0%.
Take `CCOC(=O)c1ccc(NC(=O)NNC(=O)c2ccc(CCN3CCC(c4nc(COCC(F)(F)F)c(-c5ccc(F)cc5)o4)CC3)cc2)cc1`: the IFI is -0%.
With `O=C(Nc1cccc(C(F)(F)F)c1)Nc1ccc(Cl)c(Cl)c1`, the IFI is 16.1%.
The value for `COc1ccc(CN2CCC(NCc3cccc([N+](=O)[O-])c3)CC2)cc1` was 0.72%; that for `NC(=O)c1ccccc1OCC(=O)Nc1cccc(-c2ccc(-c3nc4ccccc4[nH]3)cc2)c1` was 13%; that for `O=C(Nc1cccc(-c2ccc(CN3CCNCC3)cc2)c1)c1cccc(Cl)c1` was 6.8%.
`CCCN1CCC2(CC1)NC(C(=O)NCCC(C)C)Cc1c2[nH]c2cc(Cl)ccc12` (configuration not stated): the IFI is 2.19%.
As for `Cc1c(C)n(C2CCCCC2)c2ncnc(OC3CCN(CC(=O)NC4CC4)CC3)c12`, the IFI stood at 4.44%.
As for `O=C(Nc1ccc(Cl)cc1Cl)NC1CCN(CCCCCNC(=O)C2CC2c2ccc(Cl)c(Cl)c2)CC1` (configuration not stated), the IFI was 13.6%.
The value for `CN1CCN(CCCN(Cc2csc(-c3ccc(CNCc4ccccc4)cc3)n2)C(=O)Nc2cc(Cl)cc(Cl)c2)CC1` was 7.33%.
With `COc1ccc(C2CCN(CCN3CCC(NC(=O)c4ccc(-c5cccc(C(F)(F)F)c5C(F)(F)F)cc4)CC3)CC2)c(OC)c1`, the IFI worked out at 3.1%.
The value for `Cc1cc(NC(=O)Nc2ccc(Oc3ccccc3)cc2)c2ccccc2n1` was 5%; that for `COc1ccc(CNC2CCN(C)CC2)cc1-c1ccc(OC)c(S(=O)(=O)NCc2ccccc2)c1` was 4.81%; that for `c1ccc(-c2ccc(-c3csc(Nc4ccncc4)n3)cc2)cc1` was 11.9%.
The value for `Oc1cccc(-c2nc3cc(C4=NC5CCCCC5N4)ccc3[nH]2)c1` (configuration not stated) was 1.44% and 0.73%.
Turning to `Cc1[nH]c(C)c(-c2csc3ccccc23)c(=O)c1Cl`, the IFI was -0%.
Take `O=C(NCCCCN1CCC(c2c[nH]c3ccccc23)CC1)c1ccc(-c2ccc(C(F)(F)F)cc2)cc1`: the IFI was 2.26%.
For `CCC1CN2CCc3c([nH]c4ccc(OC)cc34)C2CC1CC1NCCc2cc(OC)c(OC)cc21` (configuration not stated), the IFI was 3.05%.
Turning to `N=C(N)NC(=O)Nc1cc(Br)c(Cl)c(Br)c1`, the IFI was determined as 5.11%.
The value for `Cc1[nH]c(C)c(-c2ccc(OCc3ccc(F)cc3)cc2)c(=O)c1Cl` was 0%.
With `COc1ccc(CNCc2ccsc2)cc1-c1ccc(OC)c(S(=O)(=O)NCCN2CCCC2)c1`, the IFI was determined as 2.91%.
For `CCc1cc(N2CCN(c3ccccc3F)CC2)nc(SCc2ccc(C(=O)NC3CC3)o2)n1`, the IFI is 5%.
In the case of `Cc1ccc(-n2c(C)cc(C(=O)CN3C(=O)NC(Cc4ccccc4)C3=O)c2C)cc1` (configuration not stated), the IFI is 2.24%.
For `CCc1cn(C)c2c(N3CCCC3=O)cc(C(=O)N[C@@H](Cc3ccccc3)[C@H](O)CNC(C)(C)c3cccc(C(F)(F)F)c3)cc12` the value was 3.92%; for `O=[N+]([O-])c1cccc(CNCC2CCN(Cc3ccc4ccccc4c3)CC2)c1`, 2.86%; for `O=C(/C=C/c1ccc(Cl)c(Cl)c1)NC1CCN(CCNC(=O)c2cccc(Cl)c2)CC1`, 3.4%.
On to `CC(C)CCN1C(=O)C(NC(=O)Oc2ccccc2)C(=O)N(CC23CC4CC(CC(C4)C2)C3)c2ccccc21` (configuration not stated), for which the IFI was found to be 0.78%.
For `CCCCSc1ccc2nc(-c3c[nH]c4ccc(C#N)cc34)cn2c1` the value was 0%; for `Cc1nc(N)nc(N)c1-c1ccc(Cl)c(Cl)c1`, 2.22%; for `CN1CCC(C(=O)Nc2ccc(-c3ccc(-c4nc5ccccc5[nH]4)cc3)cc2)CC1`, 2.61%.
`CCn1ccc2c(N3CCCCS3(=O)=O)cc(C(=O)N[C@@H](Cc3ccccc3)[C@H](O)CNC(C)(C)CCCC(C)C)cc21` displayed an IFI of 3.62%.
As to `CC(CN1CCN(C)CC1)C(=O)Nc1ccc(-c2cccc(-c3nc4cc(C(F)(F)F)ccc4[nH]3)c2)cc1` (configuration not stated), the IFI turned out to be 2.78%.
Turning to `COc1cccc(NC(=O)N2CCOC(CCN3CCC4(CCc5ccccc54)CC3)(c3ccc(Cl)c(Cl)c3)C2)c1` (configuration not stated), the IFI is 7.38%.
With `COc1ccc(NC(=O)c2ccc3[nH]c(-c4ccc(Cl)cc4)cc3c2)cc1OCCN(C)C`, the IFI came to 12.2%.
Compound `CCCCOc1ccc(/C=C/c2ccc(-c3c(C)[nH]c(C)c(Cl)c3=O)s2)cc1` yielded an IFI of 0.92%.
`CC(=O)Oc1cc(C(=O)Nc2ccc(Cl)cc2)cc2ccccc12` showed an IFI of 15.4%.
With `O=C(Nc1ccc(Cl)c(C(F)(F)F)c1)c1ccc(Cl)c([N+](=O)[O-])c1`, the IFI was found to be 7.89%.
`Cc1cc(NCCC(=O)NCc2cccc(F)c2)nc(Nc2ccccc2)n1` had an IFI of 2.27%.
The compound `O=C(Nc1cccc(-c2cccc(-c3nc4cc(F)ccc4[nH]3)c2)c1)c1ccncc1` yielded an IFI of 4.63%.
For the compound `COc1ccc(C=NN=c2c3ccccc3[nH]c3ccccc23)c2ccccc12`, the IFI was determined as 1.54%.
For `CCc1ccccc1N1CCN(CCCC(=O)c2ccc(NC(=O)c3cc(Cl)cc(Cl)c3)cc2)CC1`, the IFI worked out at 4.42%.
Regarding `COc1ccc(O)c(Cc2cnc3nc(N)[nH]c(=O)c3c2C)c1`, the IFI was 4.93%.
`Clc1cccnc1N1CCN(c2ncccc2Cl)CC1` registered an IFI of 0%.
The value for `CCOc1ccccc1CCNCC1CCN(CC2CCCCC2)CC1` was 4.32%; that for `C[C@H](Cc1ccc(C[C@@H](C)NCC(O)c2cc(Cl)c(N)c(Cl)c2)cc1)NCC(O)c1cc(Cl)c(N)c(Cl)c1` (some centres not stated) was 9.35%; that for `Cc1cc(N[C@@H](CC(C)C)C(=O)NCCc2ccccc2)nc(NCCc2cccs2)n1` was 13.9%.
For the compound `CCOC(=O)c1ccc(-n2c(C)cc(C=C3SC(=Nc4ccccc4)N(C4CCCC4)C3=O)c2C)cc1`, the IFI came to 4.17%.
In turn, `Cc1cc(-c2ccc(NC(=O)N3CCc4cc(Br)c(N5CCN(C)CC5)cc43)cc2)cc(C)n1` returned an IFI of 1.48%.
The compound `Nc1ncc(-c2ccc3nccc(-c4ccncc4)c3c2)cc1S(=O)(=O)N1CCOCC1` returned an IFI of 8.11%.
For `COc1cc(NC(=O)Nc2cccc3ccccc23)c(OC)cc1Cl` the value was 2.11%; for `CCNc1cc(C(=O)N[C@@H](Cc2ccccc2)[C@H](O)CNC2C3CC4CC(C3)CC2C4)cc(N2CCCCS2(=O)=O)c1` (some centres not stated), 1.47%; for `C=C[C@H]1CN2CC[C@H]1C[C@H]2[C@H](O)c1ccnc2ccc(OC)cc12`, 0.73% and 0.71% and -0%.
On to `CC1(C)NC(N)=NC(=N)N1OCCSCc1cc(Cl)sc1Cl`, for which the IFI came out at 4.93%.
Compound `O=C(Nc1cccc(-c2nn3ccccc3c2-c2ccnc(Nc3cccc(N4CCCC4=O)c3)n2)c1)c1cc(F)ccc1F` returned an IFI of 7.75%.
